# Laboratory results: the supplement of paper PMC11417369
# ± gives the standard deviation of the averaged measurements. The list shows a part of the results.
# Test system: PfAP2-EXP AP2 domain (GST-tagged)
# Experiment: gcPBM binding intensity (ln(normalized median fluorescence intensity)); higher = stronger DNA binding
# Summary of the method: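 Binding intensity values are the highest Masliner-normalised natural-log median intensity among replicate spots of either probe orientation. The binding step lasted 1 h in 1× PBS with 1% milk, 0.2 mg/ml BSA, 0.5% salmon testes DNA and 0.03% Triton X-100, using GST-tagged P. falciparum DNA-binding domains expressed in E. coli on an Agilent 4 × 180k array of primer-extended double-stranded 36-bp intergenic genomic probes plus negative controls. Alexa488 anti-GST antibody and a 488 nm scan detected bound protein.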
row,Sequence,gcPBM binding intensity (ln)
1,TTCATTTTATAAAAAGCACACATATAGTTATATGCA [CACACA_site9228],8.37 ± 0.26
2,TACCTTTTTTATGTTGCACACTGGGATGTTTTCTAA [CACACA_site1653],9.11 ± 0.39
3,ATTCATATTTTTCAAGTGCGCATTAAAATATTAACC [GTGCAC_site9741],8.88 ± 0.23
4,AATATATTTTTTTTTGGTACACAAGCACATCTATAC [XGTACX_site2183],8.71 ± 0.52
5,TTTCGATTATGTTTTTGTACGCAATATATTAATTCT [XGTACX_site3634],8.65 ± 0.29
6,CCATGATTATTAGATTGTACATAACATACAAATTGA [XGTACX_site314],8.33 ± 0.24
7,AATGTGCAGAAAAGTGGTACATATGATTGTTAAGAG [XGTACX_site1038],9.21 ± 0.32
8,AAAAAAAAAAAAACTAGTACATATATATAGTATGAA [XGTACX_site6279],8.34 ± 0.51
9,AAAACAAATAAGTAAACACACATATATAATATATAT [CACACA_site2586],8.64 ± 0.37
10,ATTTATATTTTATATACACACATGAACTTATATGGA [CACACA_site3167],8.37 ± 0.41
11,TTTATTTTTTATATATCACTTAAAAAAAAAAAAAAA [CACACA_negctrl_site249],8 ± 0.52
12,GAATATAAAAGGAACGGTACAGAAAAAAAAAAAAAA [XGTACX_site3917],8.42 ± 0.75
13,ATGTAATATATTATATGTACATATTTTTATGTAGAT [XGTACX_site5945],8.61 ± 0.27
14,AATATAGTCTCACATACACACATATATATTTATATA [CACACA_site2503],8.52 ± 0.38
15,ATAACCTAATAATACACACACATGAATATATATAAT [CACACA_site4689],8.48 ± 0.34
16,CTTTTTTTTTTATGCACACACAATTATACATTCCTT [CACACA_site3877],9.08 ± 0.37
17,TACGTATTCATGTATAGTACTCTTTTTTTTAATAAA [XGTACX_site3299],8.51 ± 0.46
18,TTATTACGAACTCTGCAACATATATAAATAAATAAA [CACACA_negctrl_site44],8.41 ± 0.42
19,AAAATAATATTTAATACACACATAATTACAATATAA [CACACA_site6510],8.38 ± 0.42
20,ACAAGTGTATATGTTATATATATATATATATATATA [CACACA_negctrl_site1686],10.1 ± 0.42
21,AAAGATAAAATATATACACACACATAAATACGTACA [CACACA_site8275],8.81 ± 0.37
22,CATACACGCGGACACACACACACACGCATATATAAC [CACACA_site6427],8.91 ± 0.34

row,Sequence,gcPBM binding intensity (ln)
1,GAATAAATTAAATTCACACATAAAATACAAAATACA [CACACA_site5495],8.74 ± 0.35
2,ATTATATTTGAATGGTGTACTATAATAATGTAGTTT [XGTACX_site8069],8.39 ± 0.35
3,ACATATATATATATATAAATATATATGTATGTATTT [XGTACX_negctrl_site237],8.14 ± 0.13
4,CTTATATTAATTATTACACACATATATATAAATGCA [CACACA_site770],8.41 ± 0.31
5,AAAGAAAATAGGTGTACACATAATAAATACAGCTAT [CACACA_site5917],9.17 ± 0.41
6,TTTCTTAAATATATGCGTACTCAAAATTGTTCTACA [XGTACX_site7995],8.45 ± 0.4
7,AAAAATATAATATAATGTACACATAAACAAAAAAAA [XGTACX_site3658],8.79 ± 0.49
8,TAACCACAAAAATAAAATCAAAAAAAAAAAAAAAAA [CACACA_negctrl_site1727],7.82 ± 0.2
9,ATATATATATATTTCGCACACATAATCTTATTAAAT [CACACA_site2579],9.9 ± 0.17
10,TAAAATAAAACAAACACACACACACCGACACAAAAA [CACACA_site5993],8.82 ± 0.41
11,AACAGACATACATACACACATACATACAGACATACA [CACACA_site1942],8.7 ± 0.36
12,ACATTCTATACATACACACCCACACCCAAAAAAAAA [CACACA_site863],9.29 ± 0.54
13,TATATATCAATATACACACACACATATTTATTTATA [CACACA_site6858],8.53 ± 0.31
14,TATAATTAATTAGAAGTGCATTAGGTAACAACTGTC [GTGCAC_site9746],8.9 ± 0.17
15,CTATGCATTTATAGTGCATGTAAAATATAAGATAAT [TGCATGCA_site71],9.03 ± 0.32
16,AACTATATATATAATTCACACATGTTTTAAAATTTT [CACACA_site4971],8.86 ± 0.33
17,ATGTATCATAAGAACTGTGTGGTTACAGACACGAAC [GTGCAC_negctrl_site416],9.02 ± 0.47
18,TACTATGCCCCATATAAACACACAAATAAAAAGAAT [CACACA_site8857],8.9 ± 0.4
19,TATAAACCTACATACACACATACAATAAGTAAAATG [CACACA_site1921],8.8 ± 0.47
20,ATATATTCTTATTGCTGTACACATATTTTCTAAAAA [XGTACX_site4851],9 ± 0.3
21,TTTCCTTTTTTAATATGTACACATATTATTATATCT [XGTACX_site3079],8.78 ± 0.27
22,AACGCAGTTTAATATACACACCAAAAAAAAAAAAAG [CACACA_site5643],8.37 ± 0.38

row,Sequence,gcPBM binding intensity (ln)
1,TATGATATGTATGGAAGTACGAAGAGGGATGATCAG [XGTACX_site1677],8.96 ± 0.49
2,TTAAAAATAAAACAAAGTACTCAAGTTATTGTCTTT [XGTACX_site1584],8.46 ± 0.38
3,CACGCATACAGACACACACACACACCCATATATATA [CACACA_site636],8.71 ± 0.37
4,TAAATACCTATATGGCGTACTATTATCATAGTATAT [XGTACX_site5423],8.49 ± 0.34
5,TATTTATTATGATACTCATATTATTCTATGATTAAA [GTGCAC_negctrl_site486],8.29 ± 0.37
6,CGTAAATTTTTCTAAGTGCATGTTAATTTTTCAATT,8.82 ± 0.19
7,TGAAATAAAATTTGTACACACATATATATATATATA [CACACA_site586],10 ± 0.42
8,GTGAATCCTAAGTGTACACATCTTACAGATATATAT [CACACA_site4836],9.46 ± 0.46
9,ATTTTCAAATTAAAATGTACAAATGAAAGAAAGGGA [XGTACX_site7048],8.96 ± 0.34
10,ATATAGGTATAATACACACACTAATATGTAACTGTA [CACACA_site7011],8.39 ± 0.54
11,TTCCTTCATTGGAAAAGTACACAATATTGTCGTTTA [XGTACX_site8057],8.6 ± 0.45
12,GCACAAATCATCAAATGTACAGAAAATGCTGTCAAT [XGTACX_site5037],8.61 ± 0.42
13,TTTTTTTTTTTTTTTTGTACACATAGTAAAAATTAA [XGTACX_site2410],8.3 ± 0.43
14,TTTTTTTTTAAGCAAAGGAAATCAAAATAAAAATAT [CACACA_negctrl_site719],8.53 ± 0.46
15,TGTTATTAAAACGTGACACACAATATATATATATAT [CACACA_site3539],9.98 ± 0.28
16,TTATAAATTATATATATGACCAATAATTGTGAGCAT [CACACA_negctrl_site725],8.63 ± 0.28
17,TATATATATATATGTTGTACTTTTAATTTAAATGTA [XGTACX_site4239],10.2 ± 0.23
18,TTTTTTTTTTATTCTACACACATATGTTTTTATATG [CACACA_site182],8.7 ± 0.49
19,TGTCGACATGTAGGTAGTACTATTAAAAATAATGAT [XGTACX_site3849],8.8 ± 0.42
20,ATAGAAGGACATATAACACACATATATTATAAGTAT [CACACA_site5461],8.56 ± 0.42
21,AAATATATATATATAATACACACTAAAGTAACATAA [CACACA_site2870],8.79 ± 0.3
22,GGATGATTAAGGGGGACACACGTTTATATATTTATA [CACACA_site4342],9.82 ± 0.45

row,Sequence,gcPBM binding intensity (ln)
1,TAAATATAAACACAAACACACACATATATATATATA [CACACA_site7978],10.1 ± 0.42
2,AATAAATTAATAAGGTGTACATAAATAATTTATATA [XGTACX_site8278],8.7 ± 0.39
3,AAATAGGGAATTTATGCACACAGTTAAGGGGGAAAA [CACACA_site2071],9.19 ± 0.3
4,ATATATTATTATATATGTACTTATTTATAAATGATT [XGTACX_site7597],8.3 ± 0.23
5,CATACTCTACATAGATGTACTCATTTAAAAAAAAAA [XGTACX_site6945],8.36 ± 0.17
6,ATTTTTTTTTTTTTTTTTTTTTTTTTCTCTCTCACT [CACACA_negctrl_site1046],8.21 ± 0.46
7,ATTCAAAAGGTTTAATGTACGTGATGTTTCACAAAT [XGTACX_site784],8.38 ± 0.33
8,TTAACAAATGGACACACACACACACCCAAAAAAAAA [CACACA_site4443],8.68 ± 0.44
9,TTATATTAAACAAACACACACATATATATATATATA [CACACA_site2382],10.1 ± 0.47
10,TATATATATATATATTGTACATATTGTATATATTGT [XGTACX_site3212],9.98 ± 0.21
11,TGTTACATATTATAAATACATTAACTATTATATGTA [CACACA_negctrl_site1735],8.26 ± 0.49
12,TATATATATATTTATACACACATTAGTGTATCCATG [CACACA_site5609],9.58 ± 0.28
13,TTTATAAAAAATTTTTTTTTTTTTTTTTAAATATAT [CACACA_negctrl_site146],8.19 ± 0.4
14,TTGGCATACAGACACACACACACACGCCCACATATA [CACACA_site6425],8.67 ± 0.57
15,TTTTTTTTTTGTAGTTGTACGAACTAGCTATTTATG [XGTACX_site692],8.45 ± 0.44
16,ATATATATATATATATGTACATATATATATTTTTTA [XGTACX_site5987],9.99 ± 0.54
17,CAAAAAAACAAACACACACACACACCCATATATATA [CACACA_site3653],8.62 ± 0.28
18,ATCAATACACATATATGTACATATAATAATTATCTT [XGTACX_site662],9.05 ± 0.46
19,TTATTTTTTCAAGAATGTACTTACGAATTGTCGTAT [XGTACX_site1363],8.23 ± 0.4
20,TAATTACCATATGGTACACACATATATATATGTATA [CACACA_site3487],8.87 ± 0.44
21,ATTTATAATCTGTATAGTACACATATATACATGGTT [XGTACX_site2714],8.45 ± 0.3
22,CTAAAACAATAAATCACACATACATAGGATAATATA [CACACA_site4247],8.73 ± 0.34
